# Assay results published in paper PMC7819943, “Rice protein-binding microarrays: a tool to detect cis-acting elements near promoter regions in rice”.
# The list shows a part of the results.
# Target: T1, OsWOX13 (Oryza sativa, UniProt Q5QMM3 1-267)
# T1 sequence: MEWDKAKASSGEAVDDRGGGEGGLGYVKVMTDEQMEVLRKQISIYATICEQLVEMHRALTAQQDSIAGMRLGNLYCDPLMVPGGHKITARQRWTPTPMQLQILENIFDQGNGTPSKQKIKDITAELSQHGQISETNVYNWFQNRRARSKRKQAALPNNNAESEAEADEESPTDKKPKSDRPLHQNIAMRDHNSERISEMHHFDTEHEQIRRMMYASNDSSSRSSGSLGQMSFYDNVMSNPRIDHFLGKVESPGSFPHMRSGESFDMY
# Test: protein-binding microarray (RPBM); PBS, 2% BSA, 51.3 ng/ul salmon testes DNA, 50 uM zinc acetate, 200 nM TF, 25 C, 1 h; high values mean tight binding
# Conditions: protein: recombinant; tags: N-terminal polyhistidine and DsRed monomer fusion (pET32a); label: CyDye5-dUTP incorporated in the synthesized complementary strand; 3' TTTTT single-stranded linker to array surface; dsDNA, one strand shown
# Outline: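 The binding signal is fluorescence intensity per feature, in arbitrary units, read on an Axon 4000B scanner. Polyhistidine- and DsRed-tagged transcription factors (N-terminal fusions) from E. coli BL21-CodonPlus were purified on Ni–NTA and applied at 200 nM for 1 h at 25 °C to a double-stranded, BSA-blocked custom Agilent array in buffer with 50 µM zinc acetate.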
row,Sequence,binding signal
1,GTCACCAATCAATGGAAGTAATCAATCACCACCGGTAGATCGGAGTCACCTAGTGCAG,33600 fluorescence intensity (a.u.)
2,ACGTGACTGAAAACTCTGAAACGCTGGGAATTTCTGAAAGCGGAGTCACCTAGTGCAG,6030 fluorescence intensity (a.u.)
3,GCTGACATATTGGCTTCACAATTGCTTTTCTTGTTACTTACGGAGTCACCTAGTGCAG,3990 fluorescence intensity (a.u.)
4,TATAGAAATTGCTGATTGGTTACGTCGCAACTACTCTGACCGGAGTCACCTAGTGCAG,32400 fluorescence intensity (a.u.)
5,CAGGCTTTCATGATTGTAAATTGTACAGAGTATGAATGTTCGGAGTCACCTAGTGCAG,6100 fluorescence intensity (a.u.)
6,TCTCTTATTGATGAACTCTTGAAGGGAACGGAAATCGAAACGGAGTCACCTAGTGCAG,4390 fluorescence intensity (a.u.)
7,TAATTAATCTATCATTAGCGTATATTTACTGTAGCAATACCGGAGTCACCTAGTGCAG,7440 fluorescence intensity (a.u.)
8,AAAAGTAAATTAGAGCGAGATACGTATGAATGGAGTGGAACGGAGTCACCTAGTGCAG,4540 fluorescence intensity (a.u.)
9,TTTTGATGAATAGGAGTATCACCGTTACCCAGTGGTAATCCGGAGTCACCTAGTGCAG,3530 fluorescence intensity (a.u.)
10,TGCATTAATGTCCATTTACTCCAATGCACAAATAACGAATCGGAGTCACCTAGTGCAG,3290 fluorescence intensity (a.u.)
11,TTTCTTTTACTAATTGTTTGCTAATTAATGAATGTATGGCCGGAGTCACCTAGTGCAG,19500 fluorescence intensity (a.u.)
12,ATAGAAATTATAAATTATATTGGATGAGAAGTCTAGAATACGGAGTCACCTAGTGCAG,13300 fluorescence intensity (a.u.)
13,TCGATCACAAATTAATATTGTTTGCATACATACTCATATGCGGAGTCACCTAGTGCAG,6200 fluorescence intensity (a.u.)
14,AAGAATTGATAGATGAAACGTGATTAGATACTAACTATACCGGAGTCACCTAGTGCAG,41200 fluorescence intensity (a.u.)
15,TTGGCCTTAATCAATAATCACAAATTTCTGTGTGCAGTGCCGGAGTCACCTAGTGCAG,12000 fluorescence intensity (a.u.)
16,TGCAGTGGTTAATTTATAACATCAAGAGACATCTGATGATCGGAGTCACCTAGTGCAG,6350 fluorescence intensity (a.u.)
17,TTTCTTTATTGACGAGATCTTTTCCATTTTGAAATTTGTGCGGAGTCACCTAGTGCAG,16600 fluorescence intensity (a.u.)
18,AATTACTGTCATGATTTGAATTTGCAATCATTTCCTGTACCGGAGTCACCTAGTGCAG,18800 fluorescence intensity (a.u.)
19,ATAATATCGTGTCACCAGCGTGATTTACTGAAACATACCACGGAGTCACCTAGTGCAG,3260 fluorescence intensity (a.u.)
20,AAAATTGCAATATTTAGATTTGTTCTTTTATGCATCGCATCGGAGTCACCTAGTGCAG,5510 fluorescence intensity (a.u.)
21,AATCATTATACTAATCAACCATACTTATATTATCGATAAGCGGAGTCACCTAGTGCAG,5440 fluorescence intensity (a.u.)

row,Sequence,binding signal
1,GGTGTGATTTACCGAGACAGACGAAGAGGACGGAGAAGGGCGGAGTCACCTAGTGCAG,23800 fluorescence intensity (a.u.)
2,ATATATATCATTAGGAGTGCTAATTTATCTATTTGATACCCGGAGTCACCTAGTGCAG,3940 fluorescence intensity (a.u.)
3,TACCCTAATATAACGTGAGATTTGTAGCTAGTAAATTGAACGGAGTCACCTAGTGCAG,3500 fluorescence intensity (a.u.)
4,CGAGATTGGGAAAAGCTGGCTCTATCTCCCTAGAGCAAAGCGGAGTCACCTAGTGCAG,4280 fluorescence intensity (a.u.)
5,TTAAATTGAAACATATGAGATCACTTGAAAGCTAATGAGTCGGAGTCACCTAGTGCAG,29300 fluorescence intensity (a.u.)
6,AATTTAACAAATTTTCTTCAGAATTTCTGTCGAGATGTATCGGAGTCACCTAGTGCAG,3730 fluorescence intensity (a.u.)
7,GATCGATTTGGTTTTGTTGATTTGATCTGGCCGGACAAGGCGGAGTCACCTAGTGCAG,3980 fluorescence intensity (a.u.)
8,ATTTTGTGGTAATCTATACAAATTACTATATCCCCAATTGCGGAGTCACCTAGTGCAG,4670 fluorescence intensity (a.u.)
9,CAAAATAGACAATTTTGAAAGTTAGAGACTAAATCAATACCGGAGTCACCTAGTGCAG,6780 fluorescence intensity (a.u.)
10,GTCCAATCTACTGGTCATCATCTTGCCAGTGTGCCATGTGCGGAGTCACCTAGTGCAG,3320 fluorescence intensity (a.u.)
11,ATTCAATTAGCCTATATAATAACGCGTAACCACAGCCTCTCGGAGTCACCTAGTGCAG,20300 fluorescence intensity (a.u.)
12,ACTGTGATTGCCACGGAGGATATGCTTCCATATGGGCCCCCGGAGTCACCTAGTGCAG,11000 fluorescence intensity (a.u.)
13,GTCTATCTATCTATCTATCCATCTACTCACTCCATCCTAACGGAGTCACCTAGTGCAG,3170 fluorescence intensity (a.u.)
14,TCTCTCCTGATTAGCCATGAGCAAGATGATGATCACCAGCCGGAGTCACCTAGTGCAG,8700 fluorescence intensity (a.u.)
15,CACTTCAATTATTTAAAGTAGTTCTTTTGCCTAAGGGTAGCGGAGTCACCTAGTGCAG,11100 fluorescence intensity (a.u.)
16,TTCAAATCACAATTACTACTCCATTAGCATATCTGAAACACGGAGTCACCTAGTGCAG,6020 fluorescence intensity (a.u.)
17,AGGTTGATGAAGTTTTATAGAATTGACCTGGAGGGCCATGCGGAGTCACCTAGTGCAG,4200 fluorescence intensity (a.u.)
18,AGAGGATTGAAGAAAGAATCCCATAGTGATCGATCGAGACCGGAGTCACCTAGTGCAG,4050 fluorescence intensity (a.u.)
19,TAAAATTGAACTTATTTTGGGACAGGGCAGCAGCAGTGAGCGGAGTCACCTAGTGCAG,14000 fluorescence intensity (a.u.)
20,TCTTGACAAACTTAGCGACAAAATTTACCTAGCTGCTGTGCGGAGTCACCTAGTGCAG,4740 fluorescence intensity (a.u.)
21,TCTGGTTGATTGATCGATTTGGGGAATTGGGGATCTAGCTCGGAGTCACCTAGTGCAG,38600 fluorescence intensity (a.u.)
